B1: PhoQ; a variant is named by its letters at X, in order, P23837 (parent)
chain: MKKLLRLFFPLSLRVRFLLATAAVVLVLSLAYGMVALIGYSVSFDKTTFRLLRGESNLFYTLAKWENNKLHVELPENIDKQSPTMTLIYDENGQLLWAQRDVPWLMKMIQPDWLKSNGFHEIEADVNDTSLLLSGDHSIQQQLQEVREDDDDAEMTHSVAVNVYPATSRMPKLTIVVVDTIPVELKSSYMVWSWFIYVLSANLLLVIPLLWVAAWWSLRPIEALAKEVRELEEHNRELLNPATTRELTSLVRNLNRLLKSERERYDKYRTTLTDLTHSLKTPLXXLQXXLRSLRSEKMSVSDAEPVMLEQISRISQQIGYYLHRASMRGGTLLSRELHPVAPLLDNLTSALNKVYQRKGVNISLDISPEISFVGEQNDFVEVMGNVLDNACKYCLEFVEISARQTDEHLYIVVEDDGPGIPLSKREVIFDRGQRVDTLRPGQGVGLAVAREITEQYEGKIVAGESMLGGARMEVIFGRQHSAPKDE

Drawing on a collection of fitness landscapes (doi:10.1126/science.1257360), this text covers enrichment ratio for 153 variants.

The list shows a part of the results.

In this experiment the parent is B1. The experiment is described as follows: enrichment ratio after two sorts for PhoP signalling (ratio (wild type AVST 3.29)); higher = more functional. Particulars: with PhoP (E. coli).
Consider SRRW, for which the enrichment ratio was at most 0.25.

On to TDFN, for which the enrichment ratio was at most 0.25.

Consider NQLS, for which the enrichment ratio was at most 0.25.

Consider FQQY, for which the enrichment ratio was at most 0.25.

Regarding QNVQ, the enrichment ratio is at most 0.25.

On to SSWS, for which the enrichment ratio is at most 0.25.

As for MQHI, the enrichment ratio was at most 0.25.

With EHIA, the enrichment ratio was at most 0.25.

TFKL: the enrichment ratio is at most 0.25.

As to YIPR, the enrichment ratio is at most 0.25.

Turning to AWMG, the enrichment ratio was at most 0.25.

As for DWRR, the enrichment ratio is at most 0.25.

As to QGYI, the enrichment ratio is 17.5.

With TIMV, the enrichment ratio was determined as 1.5.

Consider NDSC, for which the enrichment ratio is at most 0.25.

Turning to QDPW, the enrichment ratio is at most 0.25.

On to LAPF, for which the enrichment ratio was at most 0.25.

Consider PQGQ, for which the enrichment ratio was at most 0.25.

For the variant ETVS, the enrichment ratio is at most 0.25.

For RWLW, the enrichment ratio is at most 0.25.

For IFVT, the enrichment ratio was at most 0.25.

EIHC: the enrichment ratio is at most 0.25.

With GRYT, the enrichment ratio was at most 0.25.

As for NVRH, the enrichment ratio is at most 0.25.

Turning to AIMA, the enrichment ratio came to 12.1.

In the case of EYKW, the enrichment ratio is at most 0.25.

MLYP: the enrichment ratio was at most 0.25.

In the case of YLIS, the enrichment ratio is at most 0.25.

NGSG: the enrichment ratio is at most 0.25.

As for EQQY, the enrichment ratio was at most 0.25.

Take NCIN: the enrichment ratio is at most 0.25.

Consider QIMC, for which the enrichment ratio is at most 0.25.

With DTWN, the enrichment ratio is at most 0.25.

For the variant HTFP, the enrichment ratio was at most 0.25.

Turning to QHSY, the enrichment ratio turned out to be 4.24.

With WRLI, the enrichment ratio was at most 0.25.

For the variant DVVT, the enrichment ratio is at most 0.25.

Turning to LDVS, the enrichment ratio is at most 0.25.

GIRQ: the enrichment ratio is at most 0.25.

Turning to SDPF, the enrichment ratio is at most 0.25.

LEEQ: the enrichment ratio was at most 0.25.

As to ENQV, the enrichment ratio was at most 0.25.

Consider SIGQ, for which the enrichment ratio turned out to be 10.4.

For INID, the enrichment ratio is at most 0.25.

In the case of EYMT, the enrichment ratio is at most 0.25.

DSNT: the enrichment ratio is at most 0.25.

HSGS: the enrichment ratio was at most 0.25.

For the variant PPDQ, the enrichment ratio was at most 0.25.

On to IIVS, for which the enrichment ratio is at most 0.25.

For the variant NIWF, the enrichment ratio is at most 0.25.

TWAW: the enrichment ratio is at most 0.25.

For the variant RYAS, the enrichment ratio is at most 0.25.

Regarding FYTM, the enrichment ratio was at most 0.25.

For the variant KEQG, the enrichment ratio was at most 0.25.

Turning to RRQG, the enrichment ratio was at most 0.25.

SVGG: the enrichment ratio is 6.63.

Consider PYCF, for which the enrichment ratio was at most 0.25.

Regarding MFSS, the enrichment ratio was at most 0.25.

Regarding KPKD, the enrichment ratio is at most 0.25.

As to KTPT, the enrichment ratio was at most 0.25.

With QTTL, the enrichment ratio amounted to 0.662.

As for EDPL, the enrichment ratio is at most 0.25.

KTGT: the enrichment ratio was at most 0.25.

As for LRDS, the enrichment ratio is at most 0.25.

Regarding WVPM, the enrichment ratio is at most 0.25.

On to GKMG, for which the enrichment ratio is at most 0.25.

As for SKQT, the enrichment ratio is at most 0.25.

For KENC, the enrichment ratio was at most 0.25.

As to KTIL, the enrichment ratio is at most 0.25.

Consider PRCE, for which the enrichment ratio is at most 0.25.

For the variant VTRD, the enrichment ratio is at most 0.25.

With HDAM, the enrichment ratio is at most 0.25.

Regarding WSPW, the enrichment ratio was at most 0.25.

On to WNFV, for which the enrichment ratio is at most 0.25.

On to NEWT, for which the enrichment ratio was determined as 32.

EIST: the enrichment ratio was at most 0.25.

Take PFKW: the enrichment ratio was at most 0.25.

For the variant TDQM, the enrichment ratio is at most 0.25.

With YMAV, the enrichment ratio was at most 0.25.

Take HHDE: the enrichment ratio is at most 0.25.

As to KVSH, the enrichment ratio was at most 0.25.

MKIW: the enrichment ratio is at most 0.25.

With GTAW, the enrichment ratio was at most 0.25.

Regarding GLLI, the enrichment ratio stood at 9.34.

As for GFFN, the enrichment ratio was at most 0.25.

With DVHK, the enrichment ratio is at most 0.25.

As for YFKH, the enrichment ratio is at most 0.25.

On to KTTN, for which the enrichment ratio is at most 0.25.

Take VCTL: the enrichment ratio was found to be 6.03.

Take NGKS: the enrichment ratio was at most 0.25.

Take MACR: the enrichment ratio was at most 0.25.

As to SRDY, the enrichment ratio was at most 0.25.

For the variant NGAT, the enrichment ratio is at most 0.25.

For SYEY, the enrichment ratio is at most 0.25.

On to KHWS, for which the enrichment ratio is at most 0.25.

On to LHGC, for which the enrichment ratio was at most 0.25.

Take LYPY: the enrichment ratio is at most 0.25.

As for FATD, the enrichment ratio is at most 0.25.

Regarding HFHE, the enrichment ratio was at most 0.25.

Regarding YMMK, the enrichment ratio was at most 0.25.

For DMFK, the enrichment ratio was at most 0.25.

As to YEYV, the enrichment ratio was at most 0.25.

As to DAEH, the enrichment ratio is at most 0.25.

Turning to IETQ, the enrichment ratio was at most 0.25.

In the case of TVHS, the enrichment ratio was at most 0.25.

On to NFMH, for which the enrichment ratio is at most 0.25.

As to YTMV, the enrichment ratio amounted to 12.2.

With HDPP, the enrichment ratio is at most 0.25.

Regarding IVGL, the enrichment ratio was at most 0.25.

For YQNW, the enrichment ratio is at most 0.25.

Turning to WYAG, the enrichment ratio was at most 0.25.

GWAS: the enrichment ratio was at most 0.25.

For the variant SIAK, the enrichment ratio worked out at 11.2.

LLTD: the enrichment ratio is at most 0.25.

With HAPI, the enrichment ratio was at most 0.25.

As to SDDI, the enrichment ratio was at most 0.25.

Regarding HPDR, the enrichment ratio was at most 0.25.

On to AYRP, for which the enrichment ratio was at most 0.25.

As for FKSG, the enrichment ratio was at most 0.25.

For the variant DATK, the enrichment ratio was at most 0.25.

KNEH: the enrichment ratio was at most 0.25.

Take RTVL: the enrichment ratio was at most 0.25.

On to MSEP, for which the enrichment ratio is at most 0.25.

Turning to YQSA, the enrichment ratio was at most 0.25.

FMLK: the enrichment ratio is at most 0.25.

For WYSH, the enrichment ratio was at most 0.25.

In the case of PGLV, the enrichment ratio is at most 0.25.

With QTHL, the enrichment ratio came out at 4.03.

For the variant QPCI, the enrichment ratio is at most 0.25.

For KSIF, the enrichment ratio is at most 0.25.

Regarding FVVT, the enrichment ratio was at most 0.25.

For the variant VCCR, the enrichment ratio is at most 0.25.

In the case of GMRE, the enrichment ratio is at most 0.25.

As to KGEH, the enrichment ratio was at most 0.25.

As for LMER, the enrichment ratio is at most 0.25.

Regarding TVQD, the enrichment ratio is at most 0.25.

As to GYGK, the enrichment ratio was at most 0.25.

Consider KEEV, for which the enrichment ratio was at most 0.25.

Consider DINK, for which the enrichment ratio was at most 0.25.

Regarding KGLL, the enrichment ratio was at most 0.25.

For NYHQ, the enrichment ratio is at most 0.25.

As to THGN, the enrichment ratio is at most 0.25.

For PCVQ, the enrichment ratio is at most 0.25.

In the case of HMQK, the enrichment ratio is at most 0.25.

In the case of DRNT, the enrichment ratio was at most 0.25.

As to MTNK, the enrichment ratio was at most 0.25.

As for QLWF, the enrichment ratio was at most 0.25.

As for TENN, the enrichment ratio is 4.89.

In the case of STSI, the enrichment ratio amounted to 8.26.

For FKMI, the enrichment ratio was at most 0.25.

Consider TFFN, for which the enrichment ratio was at most 0.25.

As for VFYP, the enrichment ratio is at most 0.25.

For YAVD, the enrichment ratio is at most 0.25.
